In PubChem BioAssay AID1671193 (National Center for Advancing Translational Sciences (NCATS), 2021):
Several values for one entry are separate records, joined by “and”; a condition that tells them apart may be missing. Equal entries are not always repeated. About 180 (0.12%) of roughly 150,000 compounds were called active. Inconclusive means that the source gave no clear call. Such entries were picked first, then a sample of the others. Calls follow the shape of the dose curve; as a rule, active = well fitted cell-killing curve with a large enough effect; inconclusive = small, poorly fitted or top-dose-only effect, or effect the other way; inactive = flat fitted curve, though single readings scatter. A potency beside an inconclusive call is a rough fit, not a confirmed value.

Assay: GF-AFC viability counterscreen for inhibitors of alpha-synuclein gene (SNCA) expression; also: nearly all actives have a fitted effect of over 30% in size
Conditions: HEK-293-SNCA-luc viability, GF-AFC fluorescence, 24 h; series mostly up to 57.1 µM
In short: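 HEK-293-SNCA-luc cells (1500/well) plated 24 h, then exposed 24 h to a dilution series; GF-AFC added 30 min at 37C, fluorescence 405/540 nm; normalised to medium-only and DMSO wells, Hill fit.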
Potency is read from the fitted curve at half-maximal effect; tags tell the direction and shape of the fitted curve.

Row | Compound | Potency
1 | COc1cc2c(cc1Oc1cccc(N(C)C)c1)NC(=O)C21CCN(Cc2ccccn2)CC1 | inconclusive: 28.2 µM [cytotoxic, partial curve, poor fit]
2 | CC(=O)OC[C@]12C[C@H](OC(C)=O)C(C)=C[C@H]1O[C@@H]1[C@H](O)[C@@H](O)[C@@]2(C)[C@]12CO2 | inconclusive: 0.233 µM [cytotoxic, full curve]
3 | CC1N=C(N)OC1c1ccccc1 (stereo unspecified) | inconclusive: 22.4 µM [rising, partial curve, poor fit]
4 | CSc1ccc(-c2ccc(=O)n3c2[C@@H]2C[C@@H](CN(S(=O)(=O)c4cccs4)C2)C3)cc1 | inactive
5 | O=C(c1cccs1)N1[C@H]2CC[C@@H]1c1cnc(-c3ccc(F)cc3)nc1C2 | inactive
6 | C[C@@H]1O[C@@H](O[C@H]2C[C@@H](O)[C@]3(CO)[C@H]4[C@H](O)C[C@]5(C)[C@@H](C6=CC(=O)OC6)CC[C@]5(O)[C@@H]4CC[C@]3(O)C2)[C@H](O)[C@H](O)[C@H]1O | inconclusive: 136 nM [cytotoxic, full curve, poor fit] and inconclusive: 519 nM [cytotoxic, full curve, poor fit]
7 | CCCN1CCO[C@@H]2c3cc(O)ccc3OC[C@@H]21 | inconclusive: 42.9 µM [cytotoxic, partial curve, poor fit]
8 | COC1CC(O[C@H]2CC[C@]3(C=O)C4CC[C@]5(C)[C@@H](C6=CC(=O)OC6)CC[C@]5(O)[C@@H]4CC[C@]3(O)C2)OC(C)C1O[C@@H]1O[C@H](CO)[C@@H](O)[C@H](O)[C@H]1O (stereo partly specified) | inconclusive: 0.562 µM [cytotoxic, full curve, poor fit]
9 | O=C(NC[C@H]1C[C@@H]2CCN1C[C@@H]2CN1CCCCC1)c1ccc(C(F)(F)F)cc1 | inactive
10 | COc1cc2c(cc1Oc1ccccc1)NC(=O)C21CCN(C(=O)c2ccccc2)CC1 | inconclusive: 56.2 µM [cytotoxic, single point]
11 | COc1cc2c(cc1OCc1ccccc1)N(C(=O)c1cc3ccccc3n1C)CC21CCN(C)CC1 | inconclusive: 39.8 µM [cytotoxic, single point]
12 | CCC(CC)c1cc([C@H]2CN3CC[C@H]2C[C@@H]3CNC2CCN(C(C)=O)CC2)nc(-c2ccncc2)n1 | inactive
13 | COc1ccc2c(c1)C1(CCN(C(=O)NC3CCCCC3)C1)C(=O)N2C (stereo unspecified) | inconclusive: 4.47 µM [rising, full curve, poor fit]
14 | Nc1c(C(=O)Nc2ccc(F)c(Cl)c2)sc2nc3c(cc12)N1CCC3CC1 | inconclusive: 15.8 µM [rising, partial curve, poor fit]
15 | C#C[C@H]1CN2CC[C@H]1C[C@@H]2CNC(=O)Nc1cccc(SC)c1 | inactive
16 | CC1=C[C@H]2O[C@@H]3[C@H](O)[C@@H](O)[C@](C)([C@@]2(CO)C[C@@H]1O)[C@]31CO1 | inconclusive: 5.32 µM [cytotoxic, partial curve, poor fit]
17 | C=C(C)[C@@]12O[C@@H]1[C@@]1(C)C(=CC2=O)CC[C@@H](OC(C)=O)[C@@H]1C | inconclusive: 11.9 µM [cytotoxic, partial curve, poor fit]
18 | O=C1CN=C(c2ccccc2)c2cc([N+](=O)[O-])ccc2N1 | inconclusive: 1.58 µM [rising, partial curve, poor fit]
19 | CC[C@@H]1/C=C/C=C/C[C@H](C)C(O)[C@](C)(O)C(=O)[C@H](C)C(O)[C@H](C)C(=O)[C@H](C)[C@@H](O)[C@H](C)/C=C/C(=O)O[C@H]2[C@@H](C)[C@@H](CC1)O[C@]1(O[C@H](C[C@H](C)O)[C@H](C)CC1=O)[C@@H]2C (stereo partly specified) | inconclusive: 0.0401 µM [cytotoxic, full curve, poor fit]

Row | Compound | Potency
20 | CC[C@H]1CN2CC[C@H]1C[C@@H]2CNS(=O)(=O)c1cccs1 | inactive
21 | O=C1CCC[C@@H]2[C@H]3CCCN4CCC[C@@H](CN12)[C@@H]34 | inconclusive: 15.2 µM [cytotoxic, single point]
22 | CC1=C[C@H]2O[C@@H]3C[C@H]4OC(=O)/C=C/C=C/C(=O)OCC/C(C)=C/C(=O)OC[C@@]2(CC1)[C@]4(C)[C@]31CO1 | inconclusive: 0.0073 µM [cytotoxic, full curve, poor fit]
23 | O=C(Nc1ccccc1)N1[C@H]2CC[C@@H]1c1cncnc1C2 | inactive
24 | Cc1nc(-c2ccc(N(C)C)cc2)cc([C@H]2CN3CC[C@H]2C[C@@H]3CNC(=O)c2ccccc2)n1 | inconclusive: 25.1 µM [cytotoxic, single point]
25 | CC(=O)N1CCC2(CC1)CC(c1cccnc1)=NO2 | inactive
26 | C[N+]1(C)[C@@H]2CC[C@H]1CC(OC(=O)C(CO)c1ccccc1)C2 (stereo partly specified) | inconclusive: 1 µM [rising, partial curve, poor fit]
27 | Cc1ccncc1C(=O)N1[C@H]2CC[C@@H]1c1cnc(-c3ccc(F)cc3)nc1C2 | inactive
28 | COc1ccccc1-c1cc([C@H]2CN3CC[C@H]2C[C@@H]3COC(=O)Nc2ccc(C(C)C)cc2)nc(C)n1 | inconclusive: 35.5 µM [cytotoxic, single point]
29 | COc1cc2c(cc1OCc1ccccc1)N(C(=O)c1cc3ccccc3[nH]1)CC21CCN(C)CC1 | inconclusive: 31.6 µM [cytotoxic, partial curve, poor fit]
30 | CN(C(=O)CN1C(=O)COc2cc(Cl)c(Cl)cc21)[C@@H](CN1CCCC1)c1ccc(-c2cccc(C(N)=O)c2)cc1 | inconclusive: 29.9 µM [cytotoxic, single point]
31 | Cc1c2ccncc2c(C)c2c1[nH]c1ccccc12 | inconclusive: 12.6 µM [cytotoxic, partial curve, poor fit]
32 | Cc1cccc(CC(=O)N2CC(N(Cc3ccccc3)C3CCOCC3)C2)c1 | inactive
33 | c1ccc(N2CCC3(CCNCC3)CC2)cc1 | inconclusive: 8.91 µM [cytotoxic, single point]
34 | CC(=O)NC[C@H]1C[C@@H]2CCN1C[C@@H]2c1cc(-c2cccs2)nc(C)n1 | inactive
35 | CCOC(=O)[C@H]1CN(C(=O)c2ccno2)[C@]2(C)C(=O)N(CC3CC3)c3ccccc3[C@H]12 | inconclusive: 1.12 µM [cytotoxic, full curve, poor fit]
36 | CO[C@H]1[C@H](O)[C@H](O[C@H]2CC[C@]3(C=O)C4CC[C@]5(C)[C@H](C6=CC(=O)OC6)CC[C@]5(O)C4CC[C@@H]3C2)O[C@@H](C)[C@@H]1O (stereo partly specified) | inconclusive: 0.0462 µM [cytotoxic, partial curve, poor fit]
37 | CC(C)CN1Cc2ccccc2-n2ccnc2C12CCN(C(=O)c1ccco1)CC2 | inconclusive: 35.5 µM [cytotoxic, single point]
38 | COc1ccccc1-c1cc([C@H]2CN3CC[C@H]2C[C@@H]3CNS(=O)(=O)c2ccccc2)n(C)n1 | inactive

Row | Compound | Potency
39 | CCC(CC)c1cc([C@H]2CN3CC[C@H]2C[C@@H]3CNC(=O)COc2ccccc2)nc(-c2ccncc2)n1 | inconclusive: 31.6 µM [cytotoxic, single point]
40 | Cc1ncc2c(n1)C[C@@H]1CC[C@H]2N1C(=O)NC(C)C | inconclusive: 6.31 µM [cytotoxic, single point]
41 | COc1ccc(CC(=O)N2[C@H]3CC[C@@H]2c2cnc(-c4ccccc4)nc2C3)cc1OC | inactive
42 | COc1ccc2c(c1)CN(C)CC2c1ccc(Cl)c(Cl)c1 (stereo unspecified) | inactive
43 | COc1cccc(CC(=O)N2CCCCCC2CN2CCCC2)c1 (stereo unspecified) | inconclusive: 44.7 µM [cytotoxic, single point]
44 | CCOC(=O)[C@H]1CN([S+](=O)([O-])c2cccs2)[C@]2(C)C(=O)N(CC3CC3)c3ccccc3[C@H]12 | inconclusive: 17.8 µM [cytotoxic, single point]
45 | O=C(NC[C@H]1C[C@@H]2CCN1C[C@@H]2CN1CCN(c2ccc(F)cc2)CC1)Nc1cccc(F)c1 | inactive
46 | CC1(C(=O)O)C2CCC(O2)C1(C)C(=O)O (stereo unspecified) | inconclusive: 7.08 µM [cytotoxic, full curve, poor fit]
47 | O=C(N1CCCC1)N1C2CCC1CN(Cc1cccnc1)C2 | inactive
48 | CN1C(=O)c2ccccc2NC(=O)[C@]12O[C@@H]2c1ccccc1 | inconclusive: 26.7 µM [rising, partial curve, poor fit]
49 | COc1cc2c(cc1OCc1ccccc1)N(C(=O)C1CCC(C)CC1)CC21CCN(C)CC1 (stereo unspecified) | inconclusive: 31.6 µM [cytotoxic, partial curve, poor fit]
50 | Cn1nc(-c2ccc3ccccc3c2)cc1[C@H]1CN2CC[C@H]1C[C@@H]2COC(=O)Nc1ccccc1 | inconclusive: 39.8 µM [cytotoxic, single point]
51 | Cc1nc(-c2ccccc2Br)cc([C@H]2CN3CC[C@H]2C[C@@H]3CNC(=O)c2cccs2)n1 | inconclusive: 25.1 µM [cytotoxic, single point]
52 | C[C@H]1CCC/C=C/C2C[C@H](O)C[C@H]2[C@H](O)/C=C/C(=O)O1 (stereo partly specified) | inconclusive: 0.844 µM [cytotoxic, full curve, poor fit]
53 | Cc1ccc2c(=O)n(-c3cccc(Cl)c3)c(=O)[nH]c2c1 | inconclusive: 11.2 µM [cytotoxic, partial curve]
54 | O=C(NC1CCCCC1)N1C[C@@H]2C[C@H](C1)c1ccc(C3CCCCC3)c(=O)n1C2 | inactive
55 | Cn1nc(-c2ccc3ccccc3c2)cc1[C@H]1CN2CC[C@H]1C[C@@H]2CNC(=O)c1cccs1 | inactive
56 | COc1ccc2c(c1)/C(=C/c1cnc[nH]1)C(=O)N2 | inconclusive: 22.4 µM [cytotoxic, single point]
